Source: the supplement of paper PMC12217912
The other results are listed elsewhere or left out. The full chains were built here from the parent and the listed change. Values near 0.05 are background.

B1: TEV protease; numbered along this chain (parent)
chain: MGESLFKGPRDYNPISSSICHLTNESDGHTTSLYGIGFGPFIITNKHLFRRNNGTLVVQSLHGVFKVKDTTTLQQHLVDGRDMIIIRMPKDFPPFPQKLKFREPQREERICLVTTNFQTKSMSSMVSDTSCTFPSGDGIFWKHWIQTKDGQCGSPLVSTRDGFIVGIHSASNFTNTNNYFTSVPKNFMELLTNQEAQQWVSGWRLNADSVLWGGHKVFMVKPEEPFQPVKEATQL

Variants of: B1
Test: raw area under fraction-flipped curve 0-4 h after induction (AUC4h, not background-subtracted), DNA-recorder readout of cleavage of the substrate (dimensionless); higher = more cleavage of the substrate by the protease variant
Conditions: temperature: 34 °C; time window: 0-4 h after rhamnose induction
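Also: Bxb1 expression induced with 0.2% (w/v) L-rhamnose at OD600 near 0.5, cultures sampled hourly, flipped fraction per protease–substrate barcode pair counted by paired-end Illumina sequencing.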

Row | Variant | area with substrate ECLYFQS | area with substrate EELYFQS | area with substrate EGLYFQS | area with substrate EHLYFQS | area with substrate EILYFQS | area with substrate EKLYFQS | area with substrate ELLYFQS | area with substrate EMLYFQS | area with substrate EPLYFQS | area with substrate EQLYFQS | area with substrate ESLYFQS | area with substrate ETLYFQS | area with substrate EVLYFQS | area with substrate EWLYFQS | area with substrate EDLYFQS | area with substrate EFLYFQS | area with substrate ERLYFQS | area with substrate EYLYFQS
1 | V157H | 0.0634 | 0.0605 | 0.0509 | 0.0568 | 0.0476 | 0.0486 | 0.0579 | 0.0572 | 0.044 | 0.0672 | 0.0594 | 0.064 | 0.0599 | 0.064 | – | – | – | –
2 | D137M | 0.0932 | 0.104 | 0.0999 | 0.113 | 0.0715 | 0.0947 | – | 0.0945 | – | 0.0959 | 0.0938 | 0.11 | 0.0948 | – | 0.0946 | 0.102 | 0.102 | 0.11
3 | I110W | 0.0563 | – | – | – | 0.0569 | 0.0665 | – | – | – | – | 0.0578 | 0.0472 | 0.0612 | – | – | – | – | 0.0534
4 | S158K | 0.0613 | – | 0.0591 | 0.0572 | 0.0467 | 0.0475 | 0.0491 | 0.0588 | 0.0434 | – | 0.05 | 0.0451 | 0.0452 | 0.0541 | 0.0412 | – | 0.0579 | 0.0535
5 | S158Q | 0.071 | 0.15 | 0.0586 | 0.0653 | 0.0457 | 0.0617 | – | – | – | – | 0.0657 | – | 0.0776 | – | 0.0601 | – | – | 0.0359
6 | W141D | 0.0522 | 0.0597 | – | 0.0553 | 0.0472 | 0.127 | – | 0.0509 | – | – | – | – | – | – | 0.0579 | 0.0714 | 0.0524 | –
7 | D161N | 0.0736 | 0.0783 | 0.0984 | 0.0828 | 0.04 | 0.0574 | – | 0.0914 | 0.0913 | 0.0842 | 0.055 | 0.0848 | 0.0255 | 0.0679 | 0.0895 | – | – | –
8 | D161L | 0.057 | 0.0854 | 0.0612 | – | 0.0927 | – | – | – | 0.0752 | 0.0669 | 0.0609 | – | 0.043 | – | 0.0724 | – | – | 0.0556
9 | F133S | 0.122 | – | 0.0869 | 0.107 | 0.109 | 0.0983 | 0.103 | 0.106 | – | – | 0.107 | – | – | 0.089 | – | – | 0.0705 | –
10 | G166H | 0.0517 | 0.0462 | 0.0428 | – | 0.0587 | 0.0503 | 0.0402 | 0.0538 | 0.0615 | 0.0591 | 0.0515 | – | 0.0524 | 0.0573 | – | 0.0745 | 0.0491 | –
11 | G166Y | 0.0519 | 0.0529 | – | 0.0521 | 0.058 | – | – | 0.0499 | – | 0.019 | 0.0546 | 0.0456 | 0.0434 | – | – | – | 0.055 | –
12 | V126K | 0.116 | 0.121 | – | – | 0.104 | – | 0.107 | 0.134 | 0.116 | 0.0976 | 0.0929 | – | 0.0963 | 0.0805 | – | – | – | –
13 | T114S | 0.0795 | – | 0.111 | 0.132 | – | – | 0.0881 | 0.166 | – | 0.111 | – | – | 0.0922 | 0.131 | 0.109 | – | 0.112 | 0.112
14 | R109S | 0.0859 | 0.117 | – | – | 0.093 | 0.0978 | 0.0563 | – | 0.111 | – | 0.0903 | – | – | – | – | 0.0932 | 0.0991 | 0.141
15 | S130A | 0.0874 | – | 0.0519 | 0.0548 | 0.0461 | 0.0492 | 0.0782 | – | 0.11 | 0.122 | 0.0897 | – | 0.0899 | – | 0.141 | – | – | –
